This is one part of the list.
B1: PhoQ; a variant is named by its letters at X, in order, P23837 (parent)
chain: MKKLLRLFFPLSLRVRFLLATAAVVLVLSLAYGMVALIGYSVSFDKTTFRLLRGESNLFYTLAKWENNKLHVELPENIDKQSPTMTLIYDENGQLLWAQRDVPWLMKMIQPDWLKSNGFHEIEADVNDTSLLLSGDHSIQQQLQEVREDDDDAEMTHSVAVNVYPATSRMPKLTIVVVDTIPVELKSSYMVWSWFIYVLSANLLLVIPLLWVAAWWSLRPIEALAKEVRELEEHNRELLNPATTRELTSLVRNLNRLLKSERERYDKYRTTLTDLTHSLKTPLXXLQXXLRSLRSEKMSVSDAEPVMLEQISRISQQIGYYLHRASMRGGTLLSRELHPVAPLLDNLTSALNKVYQRKGVNISLDISPEISFVGEQNDFVEVMGNVLDNACKYCLEFVEISARQTDEHLYIVVEDDGPGIPLSKREVIFDRGQRVDTLRPGQGVGLAVAREITEQYEGKIVAGESMLGGARMEVIFGRQHSAPKDE

Variants of: B1
Assay: enrichment ratio after two sorts for PhoP signalling (ratio (wild type AVST 3.29)); higher = more functional
Settings: with PhoP (E. coli)

Variant	enrichment ratio
GPYT	≤ 0.25
QMGT	≤ 0.25
QMNL	3.36
YNAV	≤ 0.25
TANH	≤ 0.25
ILCQ	≤ 0.25
DVKA	≤ 0.25
VQYI	≤ 0.25
CSHL	≤ 0.25
RGCG	≤ 0.25
VQVD	≤ 0.25
FHRW	≤ 0.25
PNDI	≤ 0.25
IHHP	≤ 0.25
LAMH	≤ 0.25
SLAG	7.42
DVFY	≤ 0.25
GFAW	≤ 0.25
PEHG	≤ 0.25
CIHT	≤ 0.25
TARM	≤ 0.25
PFHF	≤ 0.25
EEID	≤ 0.25
REVA	≤ 0.25
IADE	≤ 0.25

Variant	enrichment ratio
HGLE	≤ 0.25
LTQE	≤ 0.25
RQEP	≤ 0.25
KNQP	≤ 0.25
HDIF	≤ 0.25
FVVL	0.591
NVVF	≤ 0.25
ACTE	0.76
ADTF	≤ 0.25
LCFV	≤ 0.25
LCSG	≤ 0.25
MHIY	≤ 0.25
VVAT	≤ 0.25
GCDQ	≤ 0.25
PIGC	≤ 0.25
TEIY	0.671
EMWS	≤ 0.25
SSGL	8.55
PHAY	≤ 0.25
APIK	≤ 0.25
KHWK	≤ 0.25
SGWK	≤ 0.25
DHQH	≤ 0.25
VQCA	≤ 0.25
WGHN	≤ 0.25

Variant	enrichment ratio
WSRV	≤ 0.25
GLTQ	≤ 0.25
SNEY	≤ 0.25
HTFW	≤ 0.25
WRRS	≤ 0.25
QHYN	≤ 0.25
AARI	≤ 0.25
RWQN	≤ 0.25
TLNC	≤ 0.25
RIRT	≤ 0.25
VGGW	≤ 0.25
KPGP	≤ 0.25
TPFD	≤ 0.25
IWDN	≤ 0.25
HACW	≤ 0.25
WLSV	≤ 0.25
VAYE	≤ 0.25
AYGR	≤ 0.25
GNNS	≤ 0.25
GRHD	≤ 0.25
DKCA	≤ 0.25
EEHF	≤ 0.25
WFTA	≤ 0.25
FRQA	≤ 0.25
ELRK	≤ 0.25

Variant	enrichment ratio
KFRS	≤ 0.25
KLMY	≤ 0.25
YKGL	≤ 0.25
VFKS	≤ 0.25
PWPY	≤ 0.25
AYCT	≤ 0.25
SNQQ	2.29
QQSP	≤ 0.25
RIPN	≤ 0.25
WCYD	≤ 0.25
MPEG	≤ 0.25
QMVG	≤ 0.25
LSDL	≤ 0.25
DYGI	≤ 0.25
NCIH	≤ 0.25
MKRS	≤ 0.25
AVEF	≤ 0.25
HPTS	≤ 0.25
FAYA	≤ 0.25
KEIM	≤ 0.25
ALQN	≤ 0.25
WTAK	≤ 0.25
THHN	≤ 0.25
LKRM	≤ 0.25
APHS	≤ 0.25

Variant	enrichment ratio
TFIR	≤ 0.25
YCMQ	≤ 0.25
GNHV	≤ 0.25
IWPE	≤ 0.25
HEMI	12.7
DFMS	≤ 0.25
DCTM	≤ 0.25
QRGR	≤ 0.25
SMVF	3.83
FMGN	≤ 0.25
NLCI	≤ 0.25
DDIS	≤ 0.25
IERC	≤ 0.25
TPAL	≤ 0.25
TFPA	≤ 0.25
VNDF	≤ 0.25
DNSR	≤ 0.25
AWIY	≤ 0.25
MRTL	≤ 0.25
VAII	≤ 0.25
TGLG	10.1
AFNA	≤ 0.25
NPWH	≤ 0.25
SAIG	7.02
GSGC	≤ 0.25

Variant	enrichment ratio
LVRV	≤ 0.25
WSKW	≤ 0.25
KIFH	≤ 0.25
SLSV	7.73
ICIQ	≤ 0.25
ECFI	≤ 0.25
LADK	≤ 0.25
VCYE	≤ 0.25
ITDF	≤ 0.25
NPIR	≤ 0.25
PEVM	≤ 0.25
RDSA	≤ 0.25
MLAV	5.83
YPFP	≤ 0.25
PSCS	≤ 0.25
EMQY	≤ 0.25
EESG	≤ 0.25
YNDR	≤ 0.25
EMFG	≤ 0.25
RDPM	≤ 0.25
RIAF	≤ 0.25
QELM	≤ 0.25
SPLR	≤ 0.25
MAMW	≤ 0.25
PNDV	≤ 0.25

Variant	enrichment ratio
IMWT	≤ 0.25
WPGP	≤ 0.25
SVVP	≤ 0.25
GQST	≤ 0.25
WFRL	≤ 0.25
DMLP	≤ 0.25
LPLQ	≤ 0.25
RAGI	≤ 0.25
TNGV	6.83
HWQG	≤ 0.25
GSSH	≤ 0.25
VWKN	≤ 0.25
QNRL	≤ 0.25
YRSD	≤ 0.25
DFPK	≤ 0.25
DQSA	≤ 0.25
KNCW	≤ 0.25
QHNC	3.29
TAVN	1.13
WETM	≤ 0.25
SWEM	≤ 0.25
FDDV	≤ 0.25
HFSV	≤ 0.25
YDLE	≤ 0.25
ISQP	≤ 0.25

Variant	enrichment ratio
IKHS	≤ 0.25
NKFG	≤ 0.25
TNLN	7.21
FIEH	≤ 0.25
VCMF	3.34
TQVC	14.3
SVQG	≤ 0.25
ISEA	≤ 0.25
DSKV	≤ 0.25
LEGI	≤ 0.25
TDNQ	2.4
HRIL	≤ 0.25
IDPT	≤ 0.25
TSQQ	4.72
LWND	≤ 0.25
YTMM	11.8
WPST	≤ 0.25
PQWP	≤ 0.25
TRDG	≤ 0.25
IYHT	≤ 0.25

Source: a collection of fitness landscapes (doi:10.1126/science.1257360)
